Measurements: the supplement of paper PMC3334620
Over roughly 33,000 sequences, “E-score (-0.5 to 0.5)” has its median near -0.043; the highest 2% begin near 0.37. Some of the results follow.

Target: T1, Upc2 (UniProt Q12151)
T1 sequence: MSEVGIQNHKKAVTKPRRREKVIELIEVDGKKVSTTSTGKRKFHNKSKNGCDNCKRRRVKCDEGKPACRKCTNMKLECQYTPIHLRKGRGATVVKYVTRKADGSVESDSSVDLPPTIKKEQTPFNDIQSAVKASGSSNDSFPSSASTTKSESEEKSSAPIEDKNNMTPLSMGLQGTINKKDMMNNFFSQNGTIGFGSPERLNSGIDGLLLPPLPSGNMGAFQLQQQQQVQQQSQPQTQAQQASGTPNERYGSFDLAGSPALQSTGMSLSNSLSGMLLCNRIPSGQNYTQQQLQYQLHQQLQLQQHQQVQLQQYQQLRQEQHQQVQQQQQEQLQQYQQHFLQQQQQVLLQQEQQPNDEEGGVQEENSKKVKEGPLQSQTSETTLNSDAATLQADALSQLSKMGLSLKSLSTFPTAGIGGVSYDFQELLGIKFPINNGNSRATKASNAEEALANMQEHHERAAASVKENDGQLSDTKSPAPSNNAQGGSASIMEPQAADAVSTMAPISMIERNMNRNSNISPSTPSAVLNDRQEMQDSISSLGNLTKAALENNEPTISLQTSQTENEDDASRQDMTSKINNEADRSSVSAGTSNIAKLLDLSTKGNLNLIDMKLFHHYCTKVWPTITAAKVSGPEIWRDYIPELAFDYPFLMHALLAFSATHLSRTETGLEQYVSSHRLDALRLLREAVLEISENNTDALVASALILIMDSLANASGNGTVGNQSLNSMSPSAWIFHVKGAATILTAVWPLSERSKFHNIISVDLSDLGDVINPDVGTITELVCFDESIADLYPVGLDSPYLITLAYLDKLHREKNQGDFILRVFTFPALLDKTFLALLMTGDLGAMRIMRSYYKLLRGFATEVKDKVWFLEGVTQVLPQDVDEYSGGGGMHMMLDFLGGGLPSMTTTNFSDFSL
Assay: PBM E-score (8-mer binding enrichment) (E-score (-0.5 to 0.5)); higher = stronger / more preferred TF binding; most listed sequences are background and not binding sites
Details: protein concentration: 200 nM; construct: GST-full length
Procedure: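 Universal 'all 10-mer' protein binding microarrays (Agilent AMADID 015681) probed with GST-tagged S. cerevisiae TFs (full-length or DBD) made by in vitro transcription/translation (PURExpress), about 100-200 nM. Bound TF was detected with fluorescent anti-GST. Each ungapped 8-mer (which stands for itself and its reverse complement) is scored by the PBM enrichment score (E-score), a modified Wilcoxon-Mann-Whitney statistic from -0.5 to +0.5, computed with the Universal PBM Analysis Suite. Scale: above 0.35 generally sequence-specific binding.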

Row | Sequence | PBM E-score
1 | TTGTAAAA | 0.0751
2 | ACAGAAAT | 0.0545
3 | TCGAAGAA | -0.105
4 | ACCTGTAA | 0.228
5 | CCCAGTAA | -0.108
6 | GCCCGTGA | -0.0912
7 | GCGAGCCC | 0.122
8 | AATAGTCG | 0.126
9 | CGGTAACA | 0.0639
10 | CCTAGATA | -0.0107
11 | AGCTCATA | -0.169
12 | ACACAACT | -0.00132
13 | AGCATTGA | -0.138
14 | AGGGAGCA | -0.196
15 | TTCGTAAA | 0.459
16 | CTGTAGGA | 0.0711
17 | AAGAGGCG | 0.0206
18 | AGAGCCAC | -0.0191
19 | AAGCACTT | -0.0533
20 | GCCTAGCC | -0.203
21 | CGTGACCA | -0.26
22 | CTAATGAG | -0.0718
23 | ATGTTACC | 0.0421
24 | CCGCACGA | 0.119
25 | ATAGCACG | 0.0151

Row | Sequence | PBM E-score
26 | AGTGCGCG | -0.108
27 | GTGATCAA | -0.096
28 | GTGGACTA | -0.0869
29 | GGCAGGCA | -0.372
30 | CCTCAAGC | -0.206
31 | AAGCGGTG | -0.0225
32 | CAAATAAA | 0.0916
33 | ACGCGCCT | 0.21
34 | GTGCGGGA | -0.00398
35 | CCCATGAC | -0.0529
36 | AAGGTATT | 0.0171
37 | AAAACGTT | 0.0958
38 | ACCGGATA | 0.041
39 | CAATAGTC | -0.256
40 | AATCCAGC | -0.175
41 | GATACCCC | -0.00201
42 | ACTCATCT | -0.037
43 | CTGGAGAA | -0.223
44 | CAATTCGG | 0.161
45 | AGCCCCAA | -0.109
46 | CCACACTA | -0.118
47 | CCTATGTC | -0.0856
48 | ACGCGCAG | 0.0316
49 | GAAATCGC | -0.0266
50 | AACTGTTC | -0.159

Row | Sequence | PBM E-score
51 | CCCCCTAG | -0.252
52 | CAGATAGG | -0.0703
53 | AGCGATAC | 0.202
54 | CTGAATAC | 0.143
55 | TCATGCAA | -0.0292
56 | CAGAAAAG | 0.0825
57 | AAATCTCC | -0.271
58 | AAGTCGAT | -0.0302
59 | CGGCTAGC | -0.171
60 | TCCCCGCA | -0.0337
61 | GGCCAAAC | 0.0898
62 | CATTGGCA | -0.286
63 | AGTCTTGG | -0.0465
64 | AACTCACT | -0.291
65 | CACATCGA | 0.0622
66 | CAAAGTTG | -0.232
67 | AAGAACAT | -0.0961
68 | AAGGGGAT | -0.0822
69 | ATATTCGC | 0.095
70 | GTCCGAGA | 0.205
71 | ATGCTTGA | -0.115
72 | ATCAGCAA | -0.269
73 | AAAGACCC | -0.204
74 | TCGATCCA | -0.0534
75 | ATGCGCGA | 0.101

Row | Sequence | PBM E-score
76 | ACTGGAGA | -0.105
77 | ATCACAAG | -0.0323
78 | CTCTTTTC | -0.0569
79 | CTGAGAAA | -0.0796
80 | GACGTGTA | -0.0304
81 | AACACGAA | 0.162
82 | CTCCCGGA | -0.135
83 | AAGATGCG | 0.0891
84 | AGAGGACT | -0.327
85 | AGGTTTAC | 0.0227
86 | ATCCGATA | 0.149
87 | GGGTATCA | -0.178
88 | CACGACAA | 0.0377
89 | CTCCCCTC | -0.0398
90 | AAGTACAA | 0.0513
91 | GCTGAAAA | 0.039
92 | AACACCAC | -0.147
93 | AGTAGTCA | -0.222
94 | CGGATCCA | 0.0178
95 | GAAGGCTA | -0.146
96 | CTATGAAC | 0.0942
97 | GAGACAAC | -0.068
98 | AAAGCAGT | -0.125
99 | ACTCAGAA | 0.0112
100 | AGGTTAAT | -0.0345

Row | Sequence | PBM E-score
101 | AACGAGGG | 0.43
102 | CTTATCTC | -0.0143
103 | CAGACCTG | -0.0763
104 | GAGTGTCC | -0.00924
105 | AATAACCT | -0.112
106 | AGGCATAC | -0.00796
107 | ACATTCAA | -0.0481
108 | AGCTTACC | -0.108
109 | GAGGTGAC | -0.0769
110 | CCATCATA | -0.29
111 | CGGAATGC | -0.118
112 | ACGTCACG | -0.0401
113 | AATGGCCC | -0.213
114 | ACTCTCTG | -0.0196
115 | ATTTGTTC | 0.22
116 | CGCACGCC | 0.0144
117 | GGTCGTAA | 0.421
118 | AAGGTGCG | 0.00721
119 | CCGGGACA | -0.213
120 | GCTGTACC | -0.131
121 | AGGATTAG | -0.0183
122 | AAGCTACC | -0.14
123 | TACTCGCA | 0.17
124 | ACACTCAA | 0.12
125 | GTTACGGA | 0.233

Row | Sequence | PBM E-score
126 | GGCCCGAC | -0.167
127 | AACTCTTA | 0.181
128 | GACATCGA | -0.0104
129 | CGCACCGC | 0.0242
130 | ATCGAGGA | 0.0976
131 | ATGTATTA | 0.0629
132 | GCTATACC | 0.144
133 | AGCACCTG | -0.273
134 | CGCTCACC | 0.1
135 | ACCTGCCC | -0.328
136 | AATGCCAA | -0.189
137 | AACGGTCC | 0.169
138 | AAACAAGC | -0.0355
139 | ATCCAGGG | -0.0324
140 | AGTCCGGG | -0.185
141 | CGTCGCCA | -0.0835
142 | CTGCCTAC | -0.0176
143 | GGACCCAA | -0.281
144 | GCTATTCA | -0.0451
145 | TAACCGTA | 0.359
146 | CCCGCGCG | 0.0368
147 | GAGAGAAA | -0.00289
148 | GCCAGCTA | -0.147
149 | CGGGTGAA | -0.0255
150 | GGCCGGAC | -0.0799

Row | Sequence | PBM E-score
151 | AGTATCTC | 0.0648
152 | AAAACATA | 0.142
153 | GACGGATC | -0.0452
154 | AATACGTG | 0.155
155 | GACTTTGC | -0.0185
156 | CCATTCCC | -0.179
157 | CGTGAACG | 0.369
158 | CTAGGATA | -0.0891
159 | ACGCTATG | -0.104
160 | CGTTCACC | 0.318
161 | AAAACGTA | 0.123
162 | ATTGATTG | -0.106
163 | GCTTTAAC | 0.234
164 | ATAAATTG | 0.0796
165 | AAAAATAT | 0.0488
166 | GCGATCAC | -0.0932
167 | AAGAGCTA | -0.126
168 | CTTGGCGA | -0.221
169 | AGACCAAC | -0.177
170 | CAAGGATG | -0.322
171 | GGCTCAAA | -0.0897
172 | CCAACCTC | -0.0315
173 | ACTCGCCC | -0.205
174 | ACGGCCGG | 0.185
175 | TAAGCGAA | 0.357

Row | Sequence | PBM E-score
176 | AATCTTGC | 0.0564
177 | ACATTTGA | -0.0192
178 | CATAGGCC | -0.00042
179 | CTACATAA | -0.282
180 | GTTGCAAC | 0.176
181 | TATAACCA | 0.199
182 | CTAAAGTC | -0.173
183 | CCTGGAGC | -0.181
184 | ACTATTAC | 0.139
185 | TAATTAGA | -0.0275
186 | AATGCCGG | -0.0772
187 | ACACGTTC | 0.0624
188 | TGACATCA | -0.147
189 | ACCATCGA | 0.0236
190 | GTCAGCAA | -0.0896
191 | AGCCATTA | 0.178
192 | AAGAAACC | -0.0601
193 | ATGGCTCG | 0.0827
194 | CAGCATGC | -0.172
195 | CGACAAGA | 0.117
196 | CTCACTCA | -0.162
197 | TGCGCGCA | -0.0425
198 | ATCCTTCC | -0.348
199 | ATAGGGAA | -0.212
200 | GGCACTCA | -0.233

Row | Sequence | PBM E-score
201 | CGCAAAGA | -0.00387
202 | ATTAATGC | -0.0273
203 | GAATGCAC | -0.0715
204 | ACCCGCTC | 0.0104
205 | ATGGATCG | 0.183
206 | GCTGCTCA | 0.0785
207 | CACAAGAG | -0.123
208 | AGAACTAC | 0.0405
209 | CACCGCTG | -0.0374
210 | GAAGCCAA | -0.241
211 | CTGTACAC | 0.152
212 | ACGTTCAC | 0.139
213 | ACTATAGC | -0.0424
214 | CGGAAATC | 0.0537
215 | CTCGACGC | -0.0193
216 | TAAGATTA | -0.0656
217 | CCAGATGG | -0.225
218 | CCATCTAC | -0.188
219 | AGGTCACG | -0.441
